# ± gives the standard deviation of the averaged measurements. The list shows a part of the results.
# System: PfAP2-G AP2 domain (GST-tagged)
# Assay: gcPBM binding intensity (ln(normalized median fluorescence intensity)); higher = stronger DNA binding
# In short: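 An Agilent 4 × 180k array of primer-extended double-stranded 36-bp intergenic genomic probes, with negative controls, was incubated for 1 h with GST-tagged P. falciparum DNA-binding domains expressed in E. coli. Alexa488 anti-GST antibody detected bound protein, scanned at 488 nm. Binding intensity is the highest Masliner-normalised natural-log median intensity across replicate spots of either probe orientation.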
row,Sequence,gcPBM binding intensity (ln)
1,GATATATAAATAAATACACACATAAAATAGAAATAT [CACACA_site6881],10.07 ± 0.021
2,ATTAAAGAAATATATACACACATTATGGGGGAATAA [CACACA_site178],10.8 ± 0.48
3,TTAAAATTCAAAAAAAAAAATCAGAATATCAGAAAA [CACACA_negctrl_site1361],9.61 ± 0.16
4,TATATAACATAATATACACACATTATATGCGTAATT [CACACA_site6098],9.88 ± 0.11
5,ATATTTATTCCTTTTGGTACACAAAAAAAAAAAAAA [XGTACX_site8126],11.3 ± 1.1
6,ACATATTAAAATATATGTACATAAAATATGAAAAAA [XGTACX_site5869],11.4 ± 0.83
7,AATTTAAGCAGAACATATATATATATATATATAAAG [CACACA_negctrl_site769],9.55 ± 0.14
8,TATATGCTATAATATACACACATACCTATATTTATA [CACACA_site6383],9.94 ± 0.12
9,AATTATTTCTTTTACACATGCAATATTTAATTAAAA [TGCATGCA_site598],10.2 ± 0.17
10,TTTAAATGCTTTTTGTGGTGACTTATCCTTTCATAA [XGTACX_negctrl_site109],10.11 ± 0.071
11,TACATATAGAAACACACACACATATATATATATATA [CACACA_site1300],10.1 ± 0.42
12,TAGGAGCCTAGACACACACACAAAAAAAAAAAAAAA [CACACA_site6911],9.96 ± 0.54
13,AAAACGAAAATTTGGAAACCAAAGGAAAAACATAAT [GTGCAC_negctrl_site709],10.13 ± 0.035
14,GAACCGTGCAAATGTTGTACACTTTAAAAATATTCT [XGTACX_site4488],11.6 ± 0.84
15,ATATGTGTGTAGTGTTCAATTATATTGATGTGAAGG [TGCATGCA_negctrl_site462],10.2 ± 0.2
16,ATAATATATATATTAACACACATCCTTTTATGTATA [CACACA_site1203],9.85
17,TTATAATAATTTTATGCACACAGAAAAATACAAGGT [CACACA_site9169],10.3 ± 0.24
18,AAAAAGGTTATTGGTACACACATATGTATATATATA [CACACA_site552],11.2 ± 0.76
19,TATTTAATGTGATACTTATATTATTTTATGATTAAA [GTGCAC_negctrl_site25],10.1 ± 0.14
20,TATACATACTCACCCACACACAAAAAAAAAAAAAAA [CACACA_site862],10.2 ± 0.61
21,TATATAAGAATTTTTACACACATGAAAATGTAGATA [CACACA_site3735],9.815 ± 0.007
22,CTATTTCGTATATATAGTACATATTATAACATACTA [XGTACX_site978],10.9 ± 0.33

row,Sequence,gcPBM binding intensity (ln)
1,AATTTATATAATTTTGTGCACAATATTCATGTATAT,10.4 ± 0.2
2,ATATTTAAAAAAGAGTGTACTCATCTCTTTTAAAAA [XGTACX_site1160],11.4 ± 1
3,ATGTTGCTCATATGAGTGCACGTTTCATTTCAGTTT [GTGCAC_site9865],10.3 ± 0.11
4,GTGTATTTATGTTATACACACAAAAATATTTTGTAT [CACACA_site4305],10.3 ± 0.19
5,AATGTAGGTTTATTTACACACAAATATAGATATATA [CACACA_site6825],9.96 ± 0.16
6,AGCTCTTGTCATTTTGCACACACACCGGTATAGGTT [CACACA_site5654],10.21 ± 0.078
7,AGAAGGTAAAAACACACACACACATACAAAAAAAAA [CACACA_site3767],10.3 ± 0.21
8,TATATATACAGACACATACACACAAATAAAAAAACA [CACACA_site3413],10.2 ± 0.25
9,ACAAAATAAAAACACACACACAAACACAAAAAAATA [CACACA_site3390],10.2 ± 0.29
10,AATCATAAAATCATATGTACACATTTTTCCTATGAT [XGTACX_site8799],11.4 ± 0.69
11,AGACTTTGTACAAACACACACATGAACACAATATTA [CACACA_site1360],10.9 ± 0.56
12,CCTCCATTAGATACTTGTACATAAAAGTTTTGATTG [XGTACX_site7428],11.1 ± 0.61
13,ATTTTATTAATTTGGTGTACTTAATTTATATTTTTC [XGTACX_site4947],11.6 ± 0.92
14,AAAAAAAAAAAATAATAAATAAATAAAAATAAATGA [CACACA_negctrl_site1623],9.33 ± 0.23
15,TTTTAATTTTAAAAATGTACTTTTATTATTTTTAAT [XGTACX_site8300],11.2 ± 0.91
16,TGTAGTCTGGAGAAAAGTACATAGTATCTGGTAACA [XGTACX_site4940],11.3 ± 0.6
17,GTATATATATATATATATATAATAGTAACTTTTACT [CACACA_negctrl_site608],9.755 ± 0.021
18,TATTATATGTAGTTGAGTACATATAAATACATATAT [XGTACX_site7933],11.5 ± 0.9
19,AAATAGTTAAAAAGGCGTACACATAAATAAATAAAT [XGTACX_site2096],11.7 ± 0.81
20,AATCTAATATAATGCACACATAAAAAAAAATCAAAC [CACACA_site3633],10.2 ± 0.17
21,AAAATAAAAAAAATGTAAAAGGTTAAAGTGAAATAT [CACACA_negctrl_site350],9.81 ± 0.2
22,ATATAAATGATATGTACACACATTTATATATATAAA [CACACA_site3475],11.4 ± 0.86

row,Sequence,gcPBM binding intensity (ln)
1,TGATATTATCTCTTCACACACTCACATACAGACAAA [CACACA_site1246],10.2 ± 0.3
2,CATATATACCTATATACACACATATAGATTTATATA [CACACA_site6451],9.74 ± 0.028
3,TTATTCTACATATATGCATGTGTATGATCTGTTTAT [TGCATGCA_site782],9.945 ± 0.092
4,TAAATTGAAATATATTGTACATTATCAACTAAGGGA [XGTACX_site1635],10.8 ± 0.54
5,CTCAACATATACGTAACACACATATAAATATAAATA [CACACA_site7749],10.2 ± 0.35
6,AAATTATAAAATAACTGTACCAATCCTTTTTTTTTA [XGTACX_site2229],10.8 ± 0.42
7,TAAAAATTAAAATGTTGTACAATGATAAAATATTAT [XGTACX_site7874],11.3 ± 0.75
8,ATTTATTTATATACAAGTACATAAAAAATTAACTTA [XGTACX_site6170],11.2 ± 1
9,TATTTGATAAAAAAAAGTACTAGAATTTCGCTTTTG [XGTACX_site7754],11.1 ± 0.7
10,ACAAATGTGAGAAAGACACACATATAATAAAAAACA [CACACA_site1156],10.1 ± 0.18
11,AATAAAATTTGCGATGCACACAGAATAGCTAATATG [CACACA_site8983],10.045 ± 0.007
12,CATATAGATTTGTTCACACACACACTAAAAAAAAAA [CACACA_site7212],10.3 ± 0.34
13,ATATTCAATTCATACACACACAATTTAAGAATGATA [CACACA_site3883],9.765 ± 0.049
14,TACATATTTACTATCACACACACGATATAAATAAAT [CACACA_site6701],10 ± 0.14
15,TATATTTAATTATTTTGTACTCATATAAAGATGATG [XGTACX_site5488],11.2 ± 0.69
16,AAAAAAAAAATATTTGAACACACGAGGATATATAAA [CACACA_site139],10.09 ± 0.014
17,TACAGACATACATACACACATACATACAGACATACA [CACACA_site1941],10.1 ± 0.3
18,CACACGCACGAACACACACACACACGCACGCACATA [CACACA_site6305],10.6 ± 0.42
19,AAAATAATATAAATAATATAAGTGAGCATATATATA [TGCATGCA_negctrl_site527],9.67 ± 0.057
20,TGTCTTGTAAATTATTGTACTATTTAAAGTATAAAA [XGTACX_site7863],11.2 ± 0.79
21,ATGAATAAAAAAGGTGGTACATATATATATATATAT [XGTACX_site7893],11.4 ± 0.88
22,ATACATATATAATTATGTACGTATATTTTATATAAC [XGTACX_site4292],11.6 ± 0.91

row,Sequence,gcPBM binding intensity (ln)
1,ACCAAAAGGGGATGTAGTACAATATGATTAGAAGAA [XGTACX_site3773],11.4 ± 0.69
2,ATAATCTGACAAATGTGTACACATATATATATATAT [XGTACX_site2379],11.6 ± 0.97
3,AAATAATATATTCCTTGTACTTATTTCAATGAATTC [XGTACX_site7719],11.2 ± 0.98
4,GATGATTCAATTTATGCACACTAAAAATTAATTATA [CACACA_site4308],10.2 ± 0.21
5,CCATAGATATTTTATACACACATATAATATATTAAT [CACACA_site373],9.955 ± 0.064
6,AAAATACCCGGACACACACACATATATATATATATT [CACACA_site6137],10.9 ± 0.61
7,TAACTTCAAACAAAATATGGTAAAAGTGGTTGAAAA [CACACA_negctrl_site42],10.1 ± 0.14
8,TATCACAAAATATACTGTACATACAGGCAGTAATAT [XGTACX_site2487],11.2 ± 0.8
9,TTATAAAACCATGTCATCAACATAGGCACAAAAATG [CACACA_negctrl_site1160],10.3 ± 0.28
10,TAATTTGTTAAAGGTTCACATATGGTATATACTTCT [XGTACX_negctrl_site292],10.17 ± 0.042
11,TAATAAGGTTACAACAAACACACAAAGGAATATACA [CACACA_site4089],10.3 ± 0.15
12,GATATGATTAACTTATGTTATTCTTGATGGTTTCTT [GTGCAC_negctrl_site411],9.59 ± 0.23
13,CCACTGTATGAATGCACACATTCATAGAATTGCTAT [CACACA_site2676],10.3 ± 0.35
14,AAGAATCACCAAATATGTACACACCTTAACATGTTT [XGTACX_site4272],11.3 ± 0.74
15,ATATGTACATATCTCATGCACTTAACAAAAAAAAAG [GTGCAC_site9898],11.3 ± 1
16,TATATATTCATAAAGTGTACATGTTTATATATATAT [XGTACX_site7585],11.4 ± 0.66
17,TTATTTTTAATATCGGTGCAACAAAAAGGAAAAGAT [GTGCAC_site9482],10.5 ± 0.47
18,TATGTATAGATATATACACACTTCTGTGATACGAAA [CACACA_site7003],10 ± 0.14
19,TTATGATAACTTTGCACACACTTAGGAAAAGTTATG [CACACA_site6836],10.2 ± 0.18
20,TATTTTAACTTTTTTTCCTTTATTCATTTTTTTTTC [CACACA_negctrl_site971],9.69 ± 0.28
21,TTTTTTTTTTTATGTGCACACAAAAGATGCTTATAT [CACACA_site2347],10.6 ± 0.53
22,TGATGCAAGATATATACACACATATAAATATAAATA [CACACA_site7429],9.8 ± 0.042

# Reference: the supplement of paper PMC11417369
